Target: T1, human TNFR1 on MRC-5 cells (human, UniProt P19438 30-455)
T1 sequence (looked up): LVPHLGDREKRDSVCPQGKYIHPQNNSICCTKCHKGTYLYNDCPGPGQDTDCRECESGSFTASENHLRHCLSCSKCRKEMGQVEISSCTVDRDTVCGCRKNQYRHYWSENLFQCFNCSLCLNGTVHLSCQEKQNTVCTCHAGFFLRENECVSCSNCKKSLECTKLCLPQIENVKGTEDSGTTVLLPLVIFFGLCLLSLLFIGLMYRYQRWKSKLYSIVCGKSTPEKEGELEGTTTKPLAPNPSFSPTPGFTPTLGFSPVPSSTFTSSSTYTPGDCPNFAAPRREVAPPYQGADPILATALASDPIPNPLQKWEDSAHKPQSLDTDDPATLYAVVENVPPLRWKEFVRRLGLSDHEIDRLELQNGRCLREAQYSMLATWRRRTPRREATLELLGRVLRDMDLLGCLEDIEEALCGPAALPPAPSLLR
Test: cell-based or functional assay

B1: DMS0123 (bispecific antibody, V domains shown)
VH: EVQLLESGGGLVQPGGSLRLSCAASGFTFVKYSMGWVRQAPGKGLEWVSQISNTGDRRYYAD[about 20 residues omitted]MNSLRAEDTAVYYCAIYTGRWEPFVYWGQGTLVTVSS
MRC5 (ND50 in nM): 5 nM

— patent publication US20110301335A1 (published 2011)
